The values that follow come from PMC9911399, “Two distinct binding modes provide the RNA-binding protein RbFox with extraordinary sequence specificity”.

The labels stand for the following.
B1: UGCGGUG (DNA:RNA)
RNA: GGGAGACCGGAAUUCAGAUUGUCCUGCGGUGUUAAAUCCCGUCGUAGCCACCA
DNA 1: CAATCTGAATTCCGGTCTCCC
DNA 2: TGGTGGCTACGACGGGATT
B2: CUGACUC (DNA:RNA)
RNA: B1 RNA with U25C, G26U, C27G, G28A, G29C, G31C
DNA 1: CAATCTGAATTCCGGTCTCCC
DNA 2: TGGTGGCTACGACGGGATT
B3: CCCCCGU (DNA:RNA)
RNA: B1 RNA with U25C, G26C, G28C, G29C, U30G, G31U
DNA 1: CAATCTGAATTCCGGTCTCCC
DNA 2: TGGTGGCTACGACGGGATT
B4: AACCCCG (DNA:RNA)
RNA: B1 RNA with U25A, G26A, G28C, G29C, U30C
DNA 1: CAATCTGAATTCCGGTCTCCC
DNA 2: TGGTGGCTACGACGGGATT
B5: CGCUAAU (DNA:RNA)
RNA: B1 RNA with U25C, G28U, G29A, U30A, G31U
DNA 1: CAATCTGAATTCCGGTCTCCC
DNA 2: TGGTGGCTACGACGGGATT
B6: CGUCCCG (DNA:RNA)
RNA: B1 RNA with U25C, C27U, G28C, G29C, U30C
DNA 1: CAATCTGAATTCCGGTCTCCC
DNA 2: TGGTGGCTACGACGGGATT
B7: CAUGAGC (DNA:RNA)
RNA: B1 RNA with U25C, G26A, C27U, G29A, U30G, G31C
DNA 1: CAATCTGAATTCCGGTCTCCC
DNA 2: TGGTGGCTACGACGGGATT
B8: GUACUUU (DNA:RNA)
RNA: B1 RNA with U25G, G26U, C27A, G28C, G29U, G31U
DNA 1: CAATCTGAATTCCGGTCTCCC
DNA 2: TGGTGGCTACGACGGGATT
B9: UCAGCAA (DNA:RNA)
RNA: B1 RNA with G26C, C27A, G29C, U30A, G31A
DNA 1: CAATCTGAATTCCGGTCTCCC
DNA 2: TGGTGGCTACGACGGGATT
B10: UGUCAGC (DNA:RNA)
RNA: B1 RNA with C27U, G28C, G29A, U30G, G31C
DNA 1: CAATCTGAATTCCGGTCTCCC
DNA 2: TGGTGGCTACGACGGGATT
B11: UUCGCUU (DNA:RNA)
RNA: B1 RNA with G26U, G29C, G31U
DNA 1: CAATCTGAATTCCGGTCTCCC
DNA 2: TGGTGGCTACGACGGGATT
B12: AGGGGAA (DNA:RNA)
RNA: B1 RNA with U25A, C27G, U30A, G31A
DNA 1: CAATCTGAATTCCGGTCTCCC
DNA 2: TGGTGGCTACGACGGGATT
B13: UCUCGAU (DNA:RNA)
RNA: B1 RNA with G26C, C27U, G28C, U30A, G31U
DNA 1: CAATCTGAATTCCGGTCTCCC
DNA 2: TGGTGGCTACGACGGGATT
B14: UAUCUGA (DNA:RNA)
RNA: B1 RNA with G26A, C27U, G28C, G29U, U30G, G31A
DNA 1: CAATCTGAATTCCGGTCTCCC
DNA 2: TGGTGGCTACGACGGGATT
B15: CCAACUU (DNA:RNA)
RNA: B1 RNA with U25C, G26C, C27A, G28A, G29C, G31U
DNA 1: CAATCTGAATTCCGGTCTCCC
DNA 2: TGGTGGCTACGACGGGATT
B16: CGUCCAG (DNA:RNA)
RNA: B1 RNA with U25C, C27U, G28C, G29C, U30A
DNA 1: CAATCTGAATTCCGGTCTCCC
DNA 2: TGGTGGCTACGACGGGATT
B17: CGGGACC (DNA:RNA)
RNA: B1 RNA with U25C, C27G, G29A, U30C, G31C
DNA 1: CAATCTGAATTCCGGTCTCCC
DNA 2: TGGTGGCTACGACGGGATT
B18: ACACCAU (DNA:RNA)
RNA: GGGAGACCGGAAUUCAGAUUGUCCACACCAUUUAAAUCCCGUCGUAGCCACCA
DNA 1: CAATCTGAATTCCGGTCTCCC
DNA 2: TGGTGGCTACGACGGGATT
B19: AGGCGCC (DNA:RNA)
RNA: B18 RNA with C26G, A27G, C29G, A30C, U31C
DNA 1: CAATCTGAATTCCGGTCTCCC
DNA 2: TGGTGGCTACGACGGGATT
B20: GACAACU (DNA:RNA)
RNA: B18 RNA with A25G, C26A, A27C, C28A, C29A, A30C
DNA 1: CAATCTGAATTCCGGTCTCCC
DNA 2: TGGTGGCTACGACGGGATT
B21: UAGCGAG (DNA:RNA)
RNA: B1 RNA with G26A, C27G, G28C, U30A
DNA 1: CAATCTGAATTCCGGTCTCCC
DNA 2: TGGTGGCTACGACGGGATT
B22: AUGUUGU (DNA:RNA)
RNA: B18 RNA with C26U, A27G, C28U, C29U, A30G
DNA 1: CAATCTGAATTCCGGTCTCCC
DNA 2: TGGTGGCTACGACGGGATT
B23: UGAGUUU (DNA:RNA)
RNA: B1 RNA with C27A, G29U, G31U
DNA 1: CAATCTGAATTCCGGTCTCCC
DNA 2: TGGTGGCTACGACGGGATT
B24: CCUUCAU (DNA:RNA)
RNA: B18 RNA with A25C, A27U, C28U
DNA 1: CAATCTGAATTCCGGTCTCCC
DNA 2: TGGTGGCTACGACGGGATT
B25: UAGAUGA (DNA:RNA)
RNA: B1 RNA with G26A, C27G, G28A, G29U, U30G, G31A
DNA 1: CAATCTGAATTCCGGTCTCCC
DNA 2: TGGTGGCTACGACGGGATT
B26: UCGAGAG (DNA:RNA)
RNA: B1 RNA with G26C, C27G, G28A, U30A
DNA 1: CAATCTGAATTCCGGTCTCCC
DNA 2: TGGTGGCTACGACGGGATT
B27: GCCCUAA (DNA:RNA)
RNA: B18 RNA with A25G, A27C, C29U, U31A
DNA 1: CAATCTGAATTCCGGTCTCCC
DNA 2: TGGTGGCTACGACGGGATT
B28: UGCUGGG (DNA:RNA)
RNA: B1 RNA with G28U, U30G
DNA 1: CAATCTGAATTCCGGTCTCCC
DNA 2: TGGTGGCTACGACGGGATT
B29: UGUGGCC (DNA:RNA)
RNA: B1 RNA with C27U, U30C, G31C
DNA 1: CAATCTGAATTCCGGTCTCCC
DNA 2: TGGTGGCTACGACGGGATT
B30: CCGUAGG (DNA:RNA)
RNA: B18 RNA with A25C, A27G, C28U, C29A, A30G, U31G
DNA 1: CAATCTGAATTCCGGTCTCCC
DNA 2: TGGTGGCTACGACGGGATT
B31: CCAGUCG (DNA:RNA)
RNA: B18 RNA with A25C, C28G, C29U, A30C, U31G
DNA 1: CAATCTGAATTCCGGTCTCCC
DNA 2: TGGTGGCTACGACGGGATT

Where a chain is given by its changes, count along the chain named. The list shows a part of the results.

The target of the test is T1, RBFOX1 RRM RbFoxmut (Fox-RRM*) (Homo sapiens, UniProt Q9NWB1 109-208, R118D;E147R;N151S;E152T).
T1 sequence: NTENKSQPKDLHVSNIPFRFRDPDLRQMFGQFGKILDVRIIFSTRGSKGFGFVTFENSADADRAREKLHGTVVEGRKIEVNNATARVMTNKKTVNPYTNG
Nature of the test: EMSA; HiTS-Eq, 1 nM pool, 10 min; buffer printed only for the single-RNA assays: 10 mM Tris pH 7.5, 150 mM NaCl, 3.4 mM EDTA, 0.001% NP-40, 30 C. The note with it: tags: His6 N-terminal (pET28a); label: 5' 32P. In short, it runs like this:
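Purified wild-type or mutant RbFox RRM at increasing concentrations was equilibrated with 1 nM of 5′-radiolabelled RNA carrying 7 randomized nucleotides for 10 min in 50 µL. Unbound RNA was separated by 8% native PAGE and sequenced. Relative association constants came from read-count changes of each RNA species compared with the control reaction, normalised to the cognate motif.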
On the technique in general: A gel shift assay detects complexes by their altered migration in electrophoresis.
Regarding B1, the binding signal was 0.16 KA relative to UGCAUGU.
For the molecule B2, the binding signal is 0.0745 KA relative to UGCAUGU.
Next, B3: 0.12 KA relative to UGCAUGU.
As for B4, the figure is 0.0723 KA relative to UGCAUGU; as for B5, 0.0911 KA relative to UGCAUGU.
B6: the binding signal is 0.0717 KA relative to UGCAUGU.
As for B7, the binding signal is 0.107 KA relative to UGCAUGU.
For B8, the binding signal was 0.0719 KA relative to UGCAUGU.
As for B9, the figure is 0.0616 KA relative to UGCAUGU.
Consider B10, for which the binding signal was 0.112 KA relative to UGCAUGU.
In the case of B11, the binding signal was 0.0731 KA relative to UGCAUGU.
Regarding B12, the binding signal was 0.134 KA relative to UGCAUGU.
B13: the binding signal is 0.082 KA relative to UGCAUGU.
Regarding B14, the binding signal was 0.0364 KA relative to UGCAUGU.
As for B15, the binding signal is 0.0736 KA relative to UGCAUGU.
On to B16, for which the binding signal is 0.107 KA relative to UGCAUGU.
For B17, the binding signal is 0.102 KA relative to UGCAUGU.
Next, B18: 0.0962 KA relative to UGCAUGU.
As to B19, the binding signal is 0.084 KA relative to UGCAUGU.
As for B20, the figure is 0.049 KA relative to UGCAUGU.
On to B21, for which the binding signal is 0.0959 KA relative to UGCAUGU.
B22: the binding signal is 0.245 KA relative to UGCAUGU.
On to B23, for which the binding signal is 0.0702 KA relative to UGCAUGU.
As for B24, the figure is 0.0914 KA relative to UGCAUGU.
As for B25, the figure is 0.0617 KA relative to UGCAUGU.
As for B26, the figure is 0.126 KA relative to UGCAUGU.
As to B27, the binding signal was 0.0804 KA relative to UGCAUGU.
Consider B28, for which the binding signal is 0.0937 KA relative to UGCAUGU.
As for B29, the figure is 0.263 KA relative to UGCAUGU; as for B30, 0.0801 KA relative to UGCAUGU; as for B31, 0.0813 KA relative to UGCAUGU.
